Reference: publication PMC6919601, “Identification of Plasmodium dipeptidyl aminopeptidase allosteric inhibitors by high throughput screening” (PLoS ONE, 2019)
Hit rate of the full screen: of about 110,000 compounds, about 230 (0.21%) showed an effect of 50% or more. This is one part of the list.

These compounds were tested against DPAP1 (Plasmodium falciparum, UniProt Q8IIJ9) (assay: primary screen, percent inhibition; read by cleavage of a fluorogenic dipeptide substrate; higher = more effect of the substance).
Parameters: species or system P. falciparum D10 trophozoite lysates; single well
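Also: 30 min substrate incubation versus DMSO and 10 µM JCP410 controls.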

DPAP1, sequence (Q8IIJ9 whole entry, looked up): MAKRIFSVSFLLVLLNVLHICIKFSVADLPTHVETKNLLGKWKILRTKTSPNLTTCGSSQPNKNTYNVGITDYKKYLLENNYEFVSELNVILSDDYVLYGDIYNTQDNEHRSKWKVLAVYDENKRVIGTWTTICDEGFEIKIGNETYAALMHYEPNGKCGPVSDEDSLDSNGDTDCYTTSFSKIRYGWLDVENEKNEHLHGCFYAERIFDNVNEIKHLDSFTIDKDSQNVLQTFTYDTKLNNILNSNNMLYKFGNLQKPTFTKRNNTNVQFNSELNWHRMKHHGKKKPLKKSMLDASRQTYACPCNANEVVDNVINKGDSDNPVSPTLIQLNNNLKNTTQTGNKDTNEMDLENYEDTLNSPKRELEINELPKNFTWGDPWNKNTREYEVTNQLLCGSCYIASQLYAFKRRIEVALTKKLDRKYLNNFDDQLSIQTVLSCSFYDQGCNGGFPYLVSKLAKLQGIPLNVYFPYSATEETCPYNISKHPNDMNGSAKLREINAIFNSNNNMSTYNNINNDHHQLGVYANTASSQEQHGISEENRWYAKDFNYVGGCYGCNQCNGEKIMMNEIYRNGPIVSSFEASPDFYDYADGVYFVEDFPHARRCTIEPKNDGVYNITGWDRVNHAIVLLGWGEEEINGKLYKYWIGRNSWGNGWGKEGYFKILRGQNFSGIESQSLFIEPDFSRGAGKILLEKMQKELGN

SMILES	% Inhibition @ 10 uM [%]
Cn1cc(NC(=O)Nc2cccnc2)c2ccccc2c1=O	4.68
CCOC(=O)N1CCN(C(=O)C(NC(=O)C2CCC(C)CC2)C(C)C)CC1 (stereo not shown)	5.36
O=C1CC(NCCC2=CCCCC2)C(=O)N1c1ccccc1 (stereo not shown)	6.1
Cn1c(=O)c2c(ncn2CC(O)Cn2c(Cc3ccccc3)nc3ccccc32)n(C)c1=O (stereo not shown)	-2.98
c1ccc(-c2nc(CN3CCc4ccccc4C3)cs2)cc1	-2.32
COc1ccc(OCC(O)CN2CCCC2)cc1 (stereo not shown)	0.605
CC1CCCC(C)N1C(=O)c1csc2c1CCCC2 (stereo not shown)	3.54
C#CCn1c(COc2ccc(C)cc2)nc2ccccc21	-0.551
O=C(NCCN1CCCC1)C1CCC(CNS(=O)(=O)c2ccc(Cl)cc2)CC1 (stereo not shown)	-2.72
COC(=O)c1[nH]c2ccccc2c1Sc1ccccc1	-1.97
O=C(Nc1ccccc1)OC1C2CCC1C(N1CCCCC1)CC2 (stereo not shown)	6.83
COc1ccc2ccccc2c1C1CC(=O)N2CN(Cc3ccccc3)CSC2=C1C#N (stereo not shown)	35.8
C/C(=C1/SC(N2CCOCC2)=NC1=O)c1ccc(C)cc1	-5.01
CCc1ccc(/C=C2/NC(=O)N(Cc3ccccc3F)C2=O)cc1	-3.65
Cc1ccc2nc(O)c3cc(C(=O)N4CCN(c5ccccn5)CC4)sc3c2c1	0.231
Nc1nc(-c2ccccc2)cnc1C(=O)NCCO	-1.65
O=C(NC1(C(F)(F)F)Oc2ccccc2O1)N1CCCC1	1.01
CCOC(=O)c1ccc2nc(NC(=O)CSc3nnc(C)c(O)n3)sc2c1	-0.671
O=C(O)Cc1ccc(-n2c(S)nnc2-c2ccc3ccccc3n2)cc1	-6.71
COc1ccc2n[n+]([O-])c3ccc(OC)cc3c2c1	2.27
O=C(NC1CCCC1)c1cnn2c(C(F)(F)F)cc(-c3cccs3)nc12	1.16
O=C(NCc1ccccc1Cl)C1=CCN(S(=O)(=O)c2ccc(F)cc2)CC1	-4.69
N#Cc1c(-c2ccccc2Cl)cc(C2CC2)nc1N	-5.49
CCOC(=O)c1c(S(=O)(=O)NCCc2cccs2)c(C)n(C)c1C	0.275
O=C(Nc1ccc(-c2noc(-c3ccccc3Br)n2)cc1)c1ccccn1	2.06

SMILES	% Inhibition @ 10 uM [%]
N#CC1=C(N)Oc2oc3ccccc3c(=O)c2C1c1cc(F)ccc1Br (stereo not shown)	-6.62
Cn1cc(NC(=O)NCc2ccco2)c2ccccc2c1=O	4.2
COc1cc(OC)cc(C(=O)N2CCN(Cc3ccc(OC)c(OCc4ccccc4)c3)CC2)c1	-5.28
O=C(Nc1ccc(O)cc1)c1ccc2c(c1)C(=O)N(Cc1ccco1)C2=O	-3.04
Nc1nc(O)c2ncn([C@H]3C[C@H](O)[C@@H](CO)O3)c2n1	-3.33
COc1ccccc1CNC(=O)Cn1ncc2c3ccccc3n(Cc3ccccc3)c2c1=O	1.8
COc1cccc(CN2CCCC2CO)c1 (stereo not shown)	1.62
Cc1ccc2c(C)nc(Nc3ncc4c(n3)CCCC4=O)nc2c1	-0.545
CNC(C)C1Oc2ccccc2OC1(C)C (stereo not shown)	6.7
Cc1nc(N)sc1-c1csc(Nc2cccc(O)c2)n1	9.29
CN1CCN(C(=O)c2c(NC(=O)c3ccccc3F)sc3c2CCCCC3)CC1	-2.13
Cc1cc(/C=C(/C#N)C(=O)Nc2ccc(F)cc2)c(C)n1-c1ccc(Cl)c(Cl)c1	4.57
COCCN1C(=O)c2ccccc2C(C(=O)NCc2cccnc2)C1c1cn(C)c2ccccc12 (stereo not shown)	-0.999
CCn1c(SCc2cc3c(cc2Br)OCO3)nnc1-c1ccoc1C	-1.85
CCn1c(C)cc(/C=C2\S/C(=N/c3ccc(N4CCOCC4)cc3)N(C)C2=O)c1C	-1.98
COc1ccc2c(c1)CC/C(=C\c1cccn1C)C2=O	-2.12
CC(C)Oc1ccc(C(=O)Nc2ccc(N3CCN(S(C)(=O)=O)CC3)cc2)cc1	-4.12
COc1ccc(CN(C)S(=O)(=O)c2nnc(NC(=O)c3cccc4ccccc34)s2)cc1OC	-1.77
CCOc1ccc(-n2c(C)nc3cc(C(=O)NCCCN4CCOCC4)ccc32)cc1	-0.458
CC1CN(Cc2nc3c(c(=O)[nH]c(=O)n3C)n2CCc2ccccc2)CC(C)O1 (stereo not shown)	-2.92
COc1cccc(-n2nnc3c(=O)n(CC(=O)N4CCCC4)cnc32)c1	-2.16
COc1cc(C(CC(=O)NCc2ccc(Cl)cc2)N2Cc3ccccc3C2=O)cc(OC)c1OC (stereo not shown)	-0.943
O=C(COc1ccccc1)NCc1ccccc1	-0.274
OCCOCCNc1ncnc2c1c(-c1ccccc1)cn2-c1ccccc1	4.77
CCC/N=c1\c(NC(=O)CC(C)C)c(O)oc2ccccc12	-2.23

SMILES	% Inhibition @ 10 uM [%]
COC(=O)/C(=C/c1c[nH]c2ccccc12)NC(C)=O	5.36
CC(C)C[C@H](NC(=O)NCc1ccc(Cl)cc1Cl)C(=O)NCC#N	-4.72
Cc1cc(C(C)(C)C)n2ncnc2n1	2.03
O=C(NCc1ccccc1Cl)C1CCN(c2nnc(-n3cccc3)s2)CC1	0.0882
COc1ccc2c(c1)OCC/C2=N\OC(=O)c1cccc2ccccc12	-3.74
O=C(NCCN1CCOCC1)C(=O)NCC1COc2ccccc2O1 (stereo not shown)	-0.834
CC(C)c1ccccc1OCC(=O)Nc1ccc(C#N)cc1	1.93
CCn1c(C)c2c(C)nn3cc(C)cc3c2c1C	0.558
CC(=O)OCc1csc(N[C@@H](CC(C)C)C(=O)NCC#N)n1	-3.04
O=C(c1ccccc1C(=O)N1CCOCC1)N1CCOCC1	-0.0369
CN(Cc1ccco1)Cc1nc2ccccc2c(=O)n1-c1ccc(F)cc1	1.73
CCCc1[nH]nc2c1C(c1ccc(OC)cc1)C(C#N)=C(N)O2 (stereo not shown)	-2.89
CCc1ccc(C2C(C(C)=O)=C(O)C(=O)N2CCc2c[nH]c3ccccc23)cc1 (stereo not shown)	5.03
Cc1nc(S)nc(O)c1Cc1ccc(C(=O)O)o1	-7.04
O=C(c1ccc(Cl)c([N+](=O)[O-])c1)N1CCCCCC1	1.55
Cc1oc2ccc(O)c(CN3CCN(Cc4ccccc4)CC3)c2c1C(=O)NC1CCCC1	-8.69
COC(=O)c1sccc1NC(=S)N(C)CCC#N	0.121
O=C(COc1ccc(S(=O)(=O)NCc2ccccc2)cc1)NC1CCCCC1	-2.65
N#CC1=C(N)Oc2c(cc(Cl)c3ccccc23)C1c1ccccc1 (stereo not shown)	0.536
O=C(CSc1nc2c(c(C(F)(F)F)n1)CCc1ccccc1-2)N1CCOCC1	0.0289
O=C(CN1C(=O)S/C(=C\c2cc3c(cc2Br)OCO3)C1=O)c1ccccc1	0.161
CCCn1c(=O)c2sccc2n2c(CCCC(=O)NCCc3cc(OC)ccc3OC)nnc12	2.33
CC1(C)CC(C(CC(=O)O)c2ccccc2)CCO1 (stereo not shown)	-4.8
CCCOc1ccc(C2C(C#N)=C(N)Oc3[nH]nc(CCC)c32)cc1OCC (stereo not shown)	2.38
N#CC1=C(N)Oc2[nH]nc(-c3cccs3)c2C12C(=O)Nc1ccccc12 (stereo not shown)	3.05

SMILES	% Inhibition @ 10 uM [%]
CCn1c(=O)c2sccc2n2c(CCC(=O)NCCc3ccc(S(N)(=O)=O)cc3)nnc12	-0.326
Cc1ncc(CO)c2cc(-c3nnc(NCc4ccc(F)cc4)s3)c(=O)oc12	11.4
COc1ccccc1/C=C/CN1CCC(Cc2ccccc2)CC1	-5.94
Cn1c2ccccc2c2cnn(CC(=O)NCCc3ccc(S(N)(=O)=O)cc3)c(=O)c21	-7.36
COc1cc(C2CC(=O)NC3=C2C(=O)CC(c2cccs2)C3)c(OC)cc1Br (stereo not shown)	1.97
CN1CCC(NCc2ccc(Cl)cc2)CC1	7.67
CCN1N=C2/C(=C/c3ccc(C)cc3)CNCC2C1c1ccc(C)cc1 (stereo not shown)	8.63
O=C(c1cnn(-c2ccccc2)c1-n1cccc1)N1CCCCC1	-1.58
Cc1ccc(C(=O)N/C(=C/c2ccccc2F)C(=O)NCc2ccccc2)cc1	2.01
Cc1cc(/C=C(/C#N)C(=O)Nc2ccc(Cl)cc2)c(C)n1-c1ccc2c(c1)OCO2	1
O=C(NCCc1ccccc1)Nc1cnc2ccccc2c1O	-2.84
CCCn1c(=O)c2sccc2n2c(CCCC(=O)N(C)Cc3ccco3)nnc12	2.45
OC(COCC1COc2ccccc2O1)CN1CCCCC1 (stereo not shown)	2.73
O=C1/C(=C\c2cccnc2)CN(Cc2ccccc2)C/C1=C\c1cccnc1	0.287
CC(C(=O)Nc1sc2c(c1C(=O)NCC1CCCO1)CCCC2)N1C(=O)c2ccccc2C1=O (stereo not shown)	1.61
Cc1c(CNC(=O)c2cc(-c3ccc4c(c3)OCO4)nc3ccccc23)cnn1C	2.32
COc1ccc(Nc2nc3c(s2)CCCC3)cc1	3.25
O=C(CC(NCCN1CCOCC1)C(=O)O)Nc1cccc(Cl)c1Cl (stereo not shown)	1.73
c1ccc2c(c1)OCC(c1nn3cnnc3s1)O2 (stereo not shown)	3.88
O=C1C2CC=CCC2C(=O)N1c1cccc(Cl)c1Cl (stereo not shown)	0.147
CCOC(=O)c1cc(-c2ccc(F)cc2)n(CC(=O)Nc2nccs2)c1C	-7.35
COc1ccc(-n2c(C)cc(/C=C3/C(=N)N4C=CSC4=NC3=O)c2C)cc1Cl	-2.98
O=C(Nc1ccc(Br)cc1F)C1CC(=O)N(c2ccc(Cl)cc2)C1 (stereo not shown)	4.57
Cc1cc(C)c2oc(C(=O)N(Cc3ccccc3)Cc3ccco3)cc(=O)c2c1	5.06
COc1ccc(-n2c3c(c(=O)[nH]c2=O)C(C(F)(F)F)(C(F)(F)F)NC(c2ccco2)=N3)cc1	-3.62
